# Measured values taken from PubChem BioAssay AID624296 (National Center for Advancing Translational Sciences (NCATS), 2012).
# The whole screen tested about 350,000 compounds, of which about 9,900 (2.8%) were called active. Inconclusive results, whose numbers are uncertain, are shown with a selection of clear calls. The call rests on the fitted dose curve; in most records, active means well fitted activation curve with a large enough effect; inconclusive means small, poorly fitted or top-dose-only effect; inactive means no such curve, though single readings can be large or run the other way. Potencies of inconclusive entries are left out as doubtful fits.
# Assay: A quantitative high throughput screen for small molecules that induce DNA re-replication in MCF 10a normal breast cells. Further: nearly all actives have a fitted effect of over 50% in size.
# Details: MCF 10A DNA re-replication, Hoechst nuclear intensity, 48 h; series mostly up to 46.1 µM
# Potency means the concentration at half of the fitted maximal effect; tags describe the fitted curve by direction and shape.
row,SMILES,Potency
1,Cc1ccc(C)c(S(=O)(=O)/N=C2\C=C(NS(=O)(=O)c3ccccc3)C(=O)c3ccccc32)c1,"inconclusive [activator, partial curve, poor fit]"
2,O=[n+]1cc(-c2ccc(Cl)cc2)n([O-])c2c1CCCCC2,"inconclusive [activator, single point]"
3,COc1ccc(NC(=O)N(C)C[C@H]2Oc3c(NC(=O)c4ccncc4)cccc3C(=O)N([C@H](C)CO)C[C@@H]2C)cc1,inactive
4,Cc1nnc(NC(=O)c2ccc3c(c2)C(=O)N(CC2CCCO2)C3=O)s1 (centres undefined),active: 11.6 µM
5,Cc1ccc(S(=O)(=O)N2CCC(C(=O)OCC(=O)N(C)C3CCS(=O)(=O)C3)CC2)cc1C (centres undefined),"inconclusive [activator, partial curve, poor fit]"
6,CC(C)c1ccc(NC(=O)CCc2ccccc2)cc1,active: 8.2 µM
7,COc1cccc(CN2CCN(C(=O)c3ccc(-c4ccccc4)cc3)CC2)c1,"inconclusive [activator, single point]"
8,Cc1nc(SCC(=O)N2CCN(c3ccccn3)CC2)c(C#N)c(C)c1C,inactive
9,Cc1ccc(C)c(NC(=O)Cn2nnc(C(=O)NCc3ccco3)c2N)c1,inactive
10,CN(C)S(=O)(=O)c1ccc(NC(=O)c2cc3ccccc3o2)cc1,"inconclusive [activator, partial curve, poor fit]"
11,C=CCOC(=O)C(=O)/C=C/c1coc2ccccc2c1=O,"inconclusive [activator, partial curve, poor fit]"
12,CCC(=O)N1CCc2nc(-c3ccccc3)sc2C1,"inconclusive [activator, single point]"
13,C=CCOc1ccc(/C=C/C(=O)OCC(=O)NCc2ccco2)cc1,"inconclusive [activator, full curve, poor fit]"
14,O=C(C#Cc1ccccc1)c1ccco1,"inconclusive [activator, full curve, poor fit]"
15,COc1ccc(NC(=O)CN(c2ccc(F)cc2)S(=O)(=O)c2ccccc2)c(OC)c1,"inconclusive [activator, single point]"
16,CCN(CC)c1ccc2cc(C(N)=O)c(=N)oc2c1,active: 18.4 µM
17,O=[N+]([O-])c1ccccc1Oc1ncccc1[N+](=O)[O-],inactive
18,NNC(=O)c1nnsc1-c1csnn1,inactive
19,CN1CCN(CC(O)COCc2ccc3c(c2)OCO3)CC1 (centres undefined),active: 20.6 µM
20,COC(=O)c1c(-c2ccc(F)cc2)csc1NC(=O)c1ccco1,"inconclusive [activator, partial curve, poor fit]"
21,CC(NC(=O)COC(=O)c1cc(NS(=O)(=O)c2ccc(Cl)c([N+](=O)[O-])c2)ccc1O)C1CC2CCC1C2 (centres undefined),active: 6.51 µM
22,Cc1cc(S(=O)(=O)c2cc3ccc(O)c(C)c3oc2=O)ccc1F,active: 10.3 µM

row,SMILES,Potency
1,CC(C(O)C12CC3CC(CC(C3)C1)C2)N1CCCCC1 (centres undefined),"inconclusive [activator, single point]"
2,Cc1ccc(C(=O)N/C(=C\c2cccc([N+](=O)[O-])c2)C(=O)NC(Cc2ccccc2)C(=O)O)cc1 (centres undefined),"inconclusive [activator, partial curve, poor fit]"
3,COc1ccc(N/C=C/C(=O)c2ccc(Cl)cc2)cc1,"inconclusive [activator, single point]"
4,CC(NC(=O)c1ccc2ccccc2n1)c1ccc(Br)cc1 (centres undefined),active: 23.1 µM
5,COc1ccc(/C=C/C(=O)OCC(=O)NCCC2=CCCCC2)cc1OC,inactive
6,CC(=O)Oc1ccc(C(=O)Nc2cccc(C(=O)c3ccc(C)c(C)c3)c2)cc1,"inconclusive [activator, single point]"
7,Cc1ccc(C(C)NC(=O)CSc2ccc(S(=O)(=O)N3CCOCC3)cn2)cc1C (centres undefined),inactive
8,Cc1ccc(C2NC(=O)c3c(sc(C)c3C)N2)c(O)c1 (centres undefined),"inconclusive [activator, partial curve, poor fit]"
9,CCNc1ccc(S(=O)(=O)NCCN(C)C)cc1[N+](=O)[O-],inactive
10,c1ccc(CCn2c3ccccc3c3nnc(SCc4ccc5nonc5c4)nc32)cc1,"inconclusive [activator, full curve]"
11,COCCNc1nc(CSc2ccccc2)nc2sc(C)c(C)c12,"inconclusive [activator, single point]"
12,CCOc1ccc(C(=O)/C=C/Nc2ccc(S(=O)(=O)Nc3onc(C)c3C)cc2)cc1,"inconclusive [activator, single point]"
13,O=C(Nc1nnc(SCC(=O)N2CCOCC2)s1)c1ccccc1Cl,inactive
14,Cc1c(C(=O)Nc2ccc(Cl)cc2)c2ccccn2c1C(=O)c1ccccc1,active: 25.9 µM
15,COc1ccc(NC(=O)c2cc(-c3cc(C)cc(C)c3O)n[nH]2)cc1Cl,"inconclusive [activator, single point]"
16,O=C(Nc1ccc(COc2ccccc2)cc1)c1cccc([N+](=O)[O-])c1,"inconclusive [activator, single point]"
17,CC(C)(C)OC(=O)N(CCc1ccccc1)Cc1ccc(OCc2cccc(NC(=O)C3CC3)c2)cc1,"inconclusive [activator, partial curve, poor fit]"
18,COc1ccc(Nc2nc(-c3cccnc3)nc3ccccc23)cn1,"inconclusive [activator, single point]"
19,CC(Sc1nc(N)cc(N)n1)C(=O)NCC1CCCO1 (centres undefined),inactive
20,Cc1cccc2sc(NC(=O)C3CSC4(C)CCC(=O)N34)nc12 (centres undefined),"inconclusive [activator, single point]"
21,CCC1(C)Cc2ccccc2-c2nc(NCCCO)n(-c3ccccc3)c(=O)c21 (centres undefined),"inconclusive [activator, partial curve, poor fit]"
22,N#Cc1ccc(-c2ccc(F)cc2)nc1Sc1ccc(F)cc1,"inconclusive [activator, full curve]"
